Laboratory results: a compilation of properties of binary mixtures (doi:10.1016/j.molliq.2020.114573)
The densities may have been worked out from excess volumes.

Assay: xn = mol fraction of the nth substance listed
Conditions: 101.3 kPa

CC[n+]1ccn(C)c1C.O=S(=O)([N-]S(=O)(=O)C(F)(F)F)C(F)(F)F + CC1COC(=O)O1
mass density [kg/m3]
Conditions | x1 = 0.1001 | x1 = 0.2007 | x1 = 0.3096 | x1 = 0.3983 | x1 = 0.5126 | x1 = 0.5825 | x1 = 0.7004 | x1 = 0.8032 | x1 = 0.8903 | x1 = 1
293.15 K | 1279.8 | 1333 | 1375 | – | – | 1442.1 | 1461.3 | 1475.2 | 1485.4 | 1496.4
298.15 K | 1274.5 | 1327.9 | – | 1396.3 | 1423.3 | 1437.1 | 1456.3 | 1470.3 | 1480.5 | 1491.5
303.15 K | 1269.3 | 1322.7 | 1364.8 | 1391.2 | 1418.3 | – | 1451.4 | 1465.4 | 1475.6 | 1486.7
308.15 K | 1264.1 | 1317.5 | 1359.7 | 1386.2 | – | 1427.2 | 1446.5 | 1460.5 | 1470.8 | 1481.9
313.15 K | 1258.9 | 1312.4 | 1354.7 | – | 1408.4 | 1422.3 | – | 1455.7 | 1465.9 | 1477
318.15 K | 1253.7 | 1307.3 | 1349.6 | 1376.2 | 1403.5 | 1417.3 | 1436.7 | – | 1461.1 | 1472.3
323.15 K | 1248.5 | – | 1344.6 | 1371.2 | 1398.5 | 1412.4 | – | 1446 | 1456.3 | 1467.5
328.15 K | 1243.3 | 1297.1 | – | 1366.2 | 1393.6 | 1407.5 | 1427 | – | 1451.5 | 1462.7
333.15 K | – | 1292 | 1334.5 | 1361.2 | 1388.7 | 1402.7 | 1422.2 | 1436.4 | 1446.7 | 1458
338.15 K | 1232.9 | 1286.9 | – | 1356.3 | – | 1397.8 | 1417.4 | 1431.6 | 1441.9 | 1453.2
343.15 K | – | 1281.8 | 1324.5 | 1351.3 | – | – | 1412.6 | 1426.8 | – | 1448.5
348.15 K | – | – | – | 1346.4 | – | 1388.1 | – | 1422.1 | 1432.4 | 1443.8

CC1COC(=O)O1 (stereo unspecified) + CC[n+]1ccn(C)c1C.O=S(=O)([N-]S(=O)(=O)C(F)(F)F)C(F)(F)F
x2 = 0
Conditions | mass density [kg/m3]
293.15 K | 1204.1
298.15 K | 1198.8
303.15 K | 1193.5
313.15 K | 1182.9
318.15 K | 1177.6
323.15 K | 1172.3
328.15 K | 1166.9
333.15 K | 1161.6
338.15 K | 1156.3
343.15 K | 1151
